Assay results reported in patent US10792289B2 (Horizon Orphan LLC, priority 2009, dated 2020).

Test system: stable CF patients
Experiment: Phase 2 study: pulmonary function (FEV1, FVC, FEF 25-75)
Format: in vivo, human
Conditions: MITT population
Experimental: The following dosage regimens (as nebulizer loaded doses) were evaluated: 120 mg QD (daily); 240 mg QD (daily); and 240 mg BID (twice daily).
Efficacy endpoints including clinical endpoints, pulmonary function tests, and additional microbiological parameters were assessed as change from Day 1 to subsequent visits where the endpoint data was collected. Time to need for intravenous/oral/inhaled anti-pseudomonal antimicrobials were assessed from Day 1 until final visit using survival analysis. The primary population for efficacy analysis was the EE population, but efficacy endpoints were also analyzed using the MITT population.
Changes in FEV1 (forced expiratory volume in 1 second), FVC (forced vital capacity) and FEF 25-75 (forced expiratory flow 25-75%) from Day 1 to all subsequent visits were determined for patients. Tables 26 and 27 summarize the results for FEV1 measurements in EE and MITT populations, respectively. FIGS. 7 and 8 show graphs of percent change in FEV1 (L) and percent change in FEV1(L) vs. placebo, respectively, at Day 28 for the EET population treated with placebo, 120 mg QD, 240 mg QD, or 240 mg BID. […] Tables 28 and 29 summarize the results for predicted FEVI measurements in EE and MITT populations, respectively. Tables 30 and 31 summarize results for FEF 25-75 measurements in EE and MITT populations, respectively.

## C[C@H]1COc2c(N3CCN(C)CC3)c(F)cc3c(=O)c(C(=O)O)cn1c23 [Levofloxacin, levofloxacin]
120 mg QD, mean
  Change in % predicted FEV1, Day 1 to Day 14: 0.81
120 mg QD, median
  Change in % predicted FEV1, Day 1 to Day 14: 1.00
240 mg BID, mean
  Change in % predicted FEV1, Day 1 to Day 14: 3.66
240 mg BID, median
  Change in % predicted FEV1, Day 1 to Day 14: 2.50
240 mg QD, mean
  Change in % predicted FEV1, Day 1 to Day 14: 1.70
240 mg QD, median
  Change in % predicted FEV1, Day 1 to Day 14: 1.00
Combined 240 mg QD and BID, mean
  Change in % predicted FEV1, Day 1 to Day 14: 2.69
Combined 240 mg QD and BID, median
  Change in % predicted FEV1, Day 1 to Day 14: 2.00

Some values that stand alone complete this part of the results.
